Where “and” joins values, the source holds several entries; their conditions need not be identical. Equal values may be shown once.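 Five compound concentrations were applied to cells in 96-well plates for 48 hours; endpoints were derived by simple linear interpolation of the resulting dose-response curve. GI50 = concentration required for 50% inhibition of growth. At the TGI there is no net growth.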 Calls of active or inactive are those of the source. Rule as the data show it: active = GI50 below about 0.43 µM; inactive = the rest.
Test system: NCI-H322M lung
Assay: NCI anticancer screen, dose series, 48 h

SMILES | TGI | GI50 | outcome
COc1cccc([C@@H]2CC(=O)c3cc4c(cc3N2)OCO4)c1 | > 100 µM | – | –
O=C1/C(=C/c2ccc(Cl)cc2)CN(C(=O)CCN2CCC(=NO)CC2)C/C1=C\c1ccc(Cl)cc1 | 2.93 µM | 1.52 µM | –
O=C1CCNC(=O)NC1 | > 100 µM | – | –
O=C1c2cccc3c(Cl)ccc(c23)C(=O)N1CCCN1CCN(CCCN2C(=O)c3cccc4c(Cl)ccc(c34)C2=O)CC1 | > 100 µM | – | –
CN1CCN(c2ccc3nc(-c4[nH]ncc4Nc4ncnc5c4OCCCN5)[nH]c3c2)CC1 | 0.0857 µM | 0.0149 µM | –
CC1(C)CN=CC(C)(OCc2ccccc2)C(=O)NC(C)(C)CN=CC(C)(OCc2ccccc2)C(=O)N1 (configuration not stated) | > 10 µM | – | –
COc1cc2c(c(OC)c1OC)-c1ccc(SC)c(=O)cc1[C@@H](NCc1cccc([N+](=O)[O-])c1)CC2 | > 100 µM | – | –
CN(C(=O)C12C3C4C1C1C2C3C41C(O)C(C)(C)C)C(C)(C)C (configuration not stated) | > 100 µM | – | –
CC[C@H](C)[C@H](NC(=O)NC(C)(C)C)C(=O)N(C)[C@H](C[C@@H](OC(C)=O)c1nc(C(=O)N[C@@H](Cc2ccccc2)C[C@H](C)C(=O)OC)cs1)C(C)C | > 25 µM | 1.31 µM | –
CCN(CC)C1Oc2cc3c(cc2C(c2cccc(OC)c2O)C1C)OCO3 (configuration not stated) | 36.5 µM | – | –
O=C(NNS(=O)(=O)c1ccccc1)c1csc(NC(=S)NC2CCCCC2)n1 | > 100 µM | – | –
O=C1C=C(O)c2c(O)ccc(O)c2C1=O | > 100 µM | – | –
COc1ccc(C2=N[C@@H](c3ccc(Cl)cc3)[C@@H](c3ccc(Cl)cc3)N2C(=O)N2CCNC(=O)C2)c(OC(C)C)c1 | 36.5 µM and 26.8 µM and 29.1 µM | 18.7 µM and 13 µM and 14.3 µM | –
N#Cc1cc([N+](=O)[O-])ccc1NC(=O)C(=O)C(C(=O)c1ccc2ccccc2c1)C1OCc2ccccc21 (configuration not stated) | 23.5 µM | – | –
CC(C)CN1CC(C)C(=O)NC1=O (configuration not stated) | > 100 µM | – | –
COc1cc(C2c3cc(OC)c(OC)c(O)c3C(=O)C3CCC(=O)N32)cc(OC)c1OC (configuration not stated) | > 100 µM | – | –
O=C(Cc1ccc(Nc2ccnc(C(F)(F)F)c2)cc1)Nc1cc(Cl)ccc1O | 66.3 µM | 14.7 µM | –
O=P(O)(O)CN1CCNCCN(CP(=O)(O)O)CCN(CP(=O)(O)O)CCNCC1 | – | – | inactive
O=c1c2cc(I)ccc2nc(SCc2nnco2)n1Cc1ccccc1 | > 100 µM | – | –
CC(=O)OCCOCNC(=S)N/N=C(\C)c1cccs1 | > 100 µM | – | –
O=C(Nc1ccc(Nc2ccncc2)cc1)c1ccc(Nc2ccnc3ccc([N+](=O)[O-])cc23)cc1[N+](=O)[O-] | > 95.7 µM | 28.5 µM | –
O=C(NO)c1ccc(Cn2c(=O)n(-c3ccccc3)c(=O)c3ccccc32)cc1 | 7.22 µM | 1.65 µM | –
CCn1c(=O)c2c3ccc(OC)cc3[nH]c2c2ccc(OC)cc21 | > 100 µM | – | –
CC1=NN(C(=O)Cc2ccccc2)C(=O)/C1=C\c1ccccc1O | > 100 µM | – | –

SMILES | TGI | GI50 | outcome
Fc1cccc(Cl)c1Cn1c(-c2c(F)cccc2Cl)nc2ccccc21 | 36 µM | 14 µM | –
NC(CCc1ncc(-c2ccccc2)s1)C(=O)O (configuration not stated) | > 100 µM | – | –
O=C(/C=C/c1ccccc1)Oc1cccc(Br)c1 | > 100 µM | – | –
Cc1ccc(/C=C/C(=O)c2ccc([N+](=O)[O-])cc2)cc1 | > 100 µM | – | –
O=C1CCCCN1C(=O)c1ccc([N+](=O)[O-])cc1 | > 100 µM | – | –
COc1ccc2c(c1)[nH]c(=O)c1c3cc(OC)c(OC)cc3cn21 | 17.2 µM | 0.0538 µM | –
O=c1[nH]nc(Cc2ccc(Cl)cc2)n1/N=C/c1c[nH]c2ccccc12 | > 100 µM | – | –
COc1ccc(-c2nnc(SCC(=O)Nc3ccc(C(=O)/C=C/c4cc(OC)c(OC)c(OC)c4)cc3)n2-c2ccccc2)cc1OC | > 10 µM | > 10 µM | –
CCCC(C)c1c(Cl)nc(Cl)nc1Cl (configuration not stated) | 25.4 µM | – | –
O=C(CC(c1ccccc1)C(C(=O)c1ccncc1)C(CC(=O)c1ccncc1)c1ccccc1)c1ccncc1 (configuration not stated) | > 100 µM | – | –
Cc1c2cccc-2c(OCCOC(=O)n2ccnc2)cc2c1[nH]c1ccccc12 | 24.5 µM | – | –
COc1ccc(-n2cc(-c3cc(OC)c(OC)c(OC)c3)[nH]c2=S)cc1Cl | > 100 µM | 54.4 µM | –
CCOC(=O)Cn1c(-c2nonc2NC(=O)c2ccccc2F)nc2ccccc21 | > 100 µM | 47.6 µM | –
O=C(/C=C/c1ccccc1O)c1cccc2ccccc12 | > 100 µM | – | –
COc1cc(S(=O)(=O)Nc2ccc(-c3csc(N4C(=O)C(C)SC4c4ccccc4)n3)cc2)ccc1Cl (configuration not stated) | > 100 µM | – | –
O=S(c1ccc(Cl)cc1)c1ccccc1C1=NCCN1 (configuration not stated) | > 100 µM | – | –
C=CCOCn1ccc(N)nc1=O | > 100 µM | – | –
OCC1OC(c2ccccc2)CC1O (configuration not stated) | > 100 µM | – | –
O=C(Cn1c(C(=O)c2ccc(Cl)cc2)nc(-c2ccccc2)c1-c1ccccc1)c1ccc(Cl)cc1 | > 100 µM | > 100 µM | –
Cc1ccc(C#CS(=O)(=O)C(F)(F)F)cc1 | > 100 µM | – | –
Fc1ccc([C@@H]2CCNC[C@H]2COc2ccc3c(c2)OCO3)cc1 | 22.6 µM | 10.3 µM | –
C[C@@]12C[C@@H](c3ccccc3O1)N1Cc3ccccc3CSC1=N2 | > 100 µM | – | –
CC#CC#C/C=C1\C=CC2(OC=CC2OC(C)=O)O1 (configuration not stated) | > 100 µM | – | –
S=C(N/N=C(\C(=N/NC(=S)N1CCCCC1)c1ccccn1)c1ccccn1)N1CCCCC1 | > 100 µM | – | –
